According to article PMC12136788:
The other results are listed elsewhere or left out.

B1: chr14:66209396:66209397:-_ENSMUSG00000022031_ENSMUST00000022609|mus_hu|FALSE|FALSE (ssRNA)
RNA: GGGAGUUCUACAGUCCGACGAUCAGAUCGAUGUCUUUCCCCUGCUCGUGGGCUUCAAUCAGUUGUUUAAUAACAUCUCCUAUAGUCAGCAUCAUCAGCUCAGCAGGGCUGAGAUCUCCAGACUAUGGAGGAUUCACCACCAGACAACAGAGGAUUGAGCAUCA
B2: 57735978_57736098_412_3pUTR_ENSG00000053770_ENST00000261558|human|control|control (ssRNA)
RNA: GGGAGUUCUACAGUCCGACGAUCUCUCACGGUGCCACAAAGUGGAGUUCCCGGUUCGUGGCUUAUGAGCCACACUGCCCGCUGCGCCAUGGUUAAGUCAGUAAAGCAUUAGCUCAUCUCAUAAUUAAGGUCGCCACCGAGGAACAACAGAGGAUUGAGCAUCA
B3: chr6:30401018:30401019:+_ENSMUSG00000029775_ENSMUST00000068259|mus_hu|FALSE|FALSE (ssRNA)
RNA: GGGAGUUCUACAGUCCGACGAUCGAUGAUGUUUUAAUUUCUAGAAUAUUGUAUGACAUGGAACUAUUCAGAAUUCCUUUAAAAAGGAAUCUGUCUUGAUUAAUAACAUUAUUAAGGUACUUUCAGGCUUUCCCUUAACUCCAUCAACAGAGGAUUGAGCAUCA
B4: chr14:89307221:89307222:+_ENSG00000165533_ENST00000346301|hu_mus|hu_hu_hu_mus_False|88_108 (ssRNA)
RNA: GGGAGUUCUACAGUCCGACGAUCUCCUGUCUGAUUAGUGCCAGGGAGUUUCAAAGAUGUGCCAGGGCGUGGGACCUGAGCAAUAGCAUUUUCAUCCAGGAUCAUUUCAGCAAUUCCUUCCUGGUCCACAUCAAUUUCAUCUAUCAACAGAGGAUUGAGCAUCA
B5: chr14:66974463:66974464:+_ENSMUSG00000022044_ENSMUST00000074523|mus_hu|mus_mus_mus_hu_False|28_108 (ssRNA)
RNA: GGGAGUUCUACAGUCCGACGAUCUUGUAGGAUGAUUUAUUCAGGGGAUCGGCCAGGAAGCAGGAGCAGAACAAGGACACCAGCGGGAGCUCCUUCAUCUUCUCUUUAUAGGCUGCAAGGGUCAUGUUUCUGGGAUCUGGUGGCCAACAGAGGAUUGAGCAUCA
B6: 102296270_102296390_440_3pUTR_ENSG00000166135_ENST00000299163|human|control|control (ssRNA)
RNA: GGGAGUUCUACAGUCCGACGAUCCCUGCAGUUUCUCAACGAACUCAUGAAAUUUCAUUUCUUCCCUGUUGGACCUCGGCUUAAAGUUCUGGAAAUUGGCCAUCUUCUUCUCAUCAUAGUACAAGAACUUGUGGGUGCUGGCACCAACAGAGGAUUGAGCAUCA
B7: chr2:127629987:127629988:-_ENSMUSG00000027379_ENSMUST00000028858|mus_mus|FALSE|FALSE (ssRNA)
RNA: GGGAGUUCUACAGUCCGACGAUCACCAGAUGUUUCACAUUUUCCUGUAAAUACAGUUCCUUUAGGGAAAAGUUUCAUAUCUAUACUCUGACCCAGGUCAAUCAAUGCCAAGCCGGUAGCUAAGUCUUCAUCAGCCUGUUCCAACAACAGAGGAUUGAGCAUCA
B8: chr5:145557987:145557988:+_ENSMUSG00000045482_ENSMUST00000132925|mus_hu|FALSE|FALSE (ssRNA)
RNA: GGGAGUUCUACAGUCCGACGAUCCAGUUUCAAUGGCCUUCUCCAUGGGGAGCUGGAGAGAAGCUUUGCAGUCGGAAAACUCCACAGUGAUGCUGGGGCCCUGAACCUCGGUCACAACGUAGUGCAGCUUCUGCGACUCCUUCACAACAGAGGAUUGAGCAUCA
B9: 88886798_88917630_1775_CDS_ENSMUSG00000053333_ENSMUST00000065694|mouse|control|control (ssRNA)
RNA: GGGAGUUCUACAGUCCGACGAUCAGUAAAAGCAAGCUUCAGCUGAUCUAAACGGAGUGCGCCAUCUACAAAGCGCUGGCGGCGGAGUUGCUUUGCAAUGCUGUGCAGGUUCAGGACUGCCUGGUGCACCUCCUCGACGCUGUGCAACAGAGGAUUGAGCAUCA
B10: chr11:107549074:107549075:+_ENSMUSG00000020721_ENSMUST00000106746|mus_mus|FALSE|FALSE (ssRNA)
RNA: GGGAGUUCUACAGUCCGACGAUCUAAUGAUAUCCCUCAAACAAGCAAUUAGAAAGAUCUUAGAAUUGCUCUGUGUAUGUAACAUCUUAGAAAGAUCUUAGAAUUGCUCUGUGUAGGUCACAUCAUCUUAACGUAAACAUCAAUCAACAGAGGAUUGAGCAUCA
B11: 50803853_50803973_910_CDS_ENSG00000008196_ENST00000393655|human|control|control (ssRNA)
RNA: GGGAGUUCUACAGUCCGACGAUCGAGAGAUGCAUUGAGGCAUUCAGGGGGCGACAGCCGUCUCUGAACUUCUCCCACAGUUACUUUGUACUUCGAAGUUGAACUGAGCAGAGACAAACGGCCUGGGACGGAGCAAAACACCUCCAACAGAGGAUUGAGCAUCA
B12: chr5:173380165:173380166:+_ENSG00000113742_ENST00000334035|hu_mus|motif|central (ssRNA)
RNA: GGGAGUUCUACAGUCCGACGAUCCACCCGUUUAUCUAUCUCUCCAUGCUGCAGCUGAACAAAGCGGGCACUGAUAGCAGCGGUGUAACUCUGUUGAUUAGAAAACGCGACUCUUCCAGCUCCUUUUGGGUAUUUGAGCUCUGGCAACAGAGGAUUGAGCAUCA
B13: 6958801_6958921_424_CDS_ENSG00000111665_ENST00000229265|human|control|control (ssRNA)
RNA: GGGAGUUCUACAGUCCGACGAUCCUGUCUUGCUUCCUCCUUGGAAAACACCUGUUUGGAGGGGAACUCAGUCUGGUUCCAAGGUGGCAUCUGUUCCUCAACAGAUAACUGGGUACCCAGAGGCAAGUCCAAUUCAGAAGAUAACAACAGAGGAUUGAGCAUCA
B14: chr12:16048344:16048345:+_ENSG00000023734_ENST00000419869|hu_hu|hu_hu_hu_mus_True|18_58 (ssRNA)
RNA: GGGAGUUCUACAGUCCGACGAUCAGAUCGUCCAUAAGUAAUAACCAAAAUCUCUCCUUCAGGAAUAUACUCCAUGCUACUAACAGACAUAUUAAAAUUCAGAGAUUUCACUUCUGUCAUAGUAGCAUGAUCCCAGAGCCGAACCAACAGAGGAUUGAGCAUCA
B15: chr11:87794696:87794697:-_ENSMUSG00000020483_ENSMUST00000020775|mus_mus|FALSE|FALSE (ssRNA)
RNA: GGGAGUUCUACAGUCCGACGAUCGGCCUUUUAUUUUUAUCUAGGGAGAGAAGAGAAAAGGAGGGGUAGGAGAGAUUUCCUAGUGCAGUACAACCAAAAAAAUAAUGUUAACGUCUUAAAAACAAACGCAAAGCAGCCUUCUUCCAACAGAGGAUUGAGCAUCA
B16: chr8:127197416:127197417:-_ENSMUSG00000037300_ENSMUST00000118134|mus_mus|FALSE|FALSE (ssRNA)
RNA: GGGAGUUCUACAGUCCGACGAUCUUUUGCUAUUUUGCUGAAGGCCUCUGAGCCAGGGGCUGUCAUGGCUUCAAAGUCGACUAACUGGAAAAGAGGAGGCGCAGGACGUGAUAAAAGGAAGGAAAUGGUGUGGGGUCUAGCUCGCAACAGAGGAUUGAGCAUCA
B17: chr3:32582686:32582687:-_ENSG00000144635_ENST00000273130|hu_mus|FALSE|FALSE (ssRNA)
RNA: GGGAGUUCUACAGUCCGACGAUCUCGCUGAGGGGAGGCUGGGAAGUCUUCUCCUGGCUCCACGUACUCUUGGAAGUCUCUAAUCAACUUCUGCUCCAUUUCCUUCAUCUCUUCAGGGGGGAUUUUCAGCUUGUCGACAUGUUCCAACAGAGGAUUGAGCAUCA
B18: 47662921_47675070_133_3pUTR_ENSG00000124207_ENST00000262982|human|control|control (ssRNA)
RNA: GGGAGUUCUACAGUCCGACGAUCCAGGAUCAGGAUCAAGUGUUUUCUUUAAAUAUUCUGUUAGUGUUUGCAGAUUUGCAUCGCUGAGUUCCAUUGCUAUAGGAUCUCGUGGGGAUACAGAAACGGAGGAGGGAACCCCAGCCGCAACAGAGGAUUGAGCAUCA
B19: chr10:33190432:33190433:-_ENSG00000150093_ENST00000302278|hu_mus|hu_hu_hu_mus_True|78_98 (ssRNA)
RNA: GGGAGUUCUACAGUCCGACGAUCUACAUUUUCCAAACCUGCACAUGAAUAAAACCCUGGCAAUAUUGCCCCAAAACUACCCUACUGUGACUAAGAUGCUGCUGCUGUGAGCUUGGUGUUGCAAAAUCCGCCUGAGUAGGAUUCCAACAGAGGAUUGAGCAUCA
B20: chr3:95061978:95061979:-_ENSMUSG00000015711_ENSMUST00000015855|mus_mus|motif|central (ssRNA)
RNA: GGGAGUUCUACAGUCCGACGAUCUCGUUCCAGGAUGCCACAGAUUGUCAUUCGAAGUGCCUCGUGUGGACAGAAGAUAGCGGAUUGCCGUACUGGCUCAUUUUGAGUGUUGAAAAAGAUAGUCAUGGCAACCAGGGCAUCAUACAACAGAGGAUUGAGCAUCA
B21: 42744061_42749184_606_CDS_ENSG00000103994_ENST00000263805|human|control|control (ssRNA)
RNA: GGGAGUUCUACAGUCCGACGAUCGUCUUGGUAAGGAAUUCGGUCUUCUCGUCUCCAUUGGGGUCGUCUGUCAUCAGAGUUUAUUUCUUGGUUGCUAUUGGAAGGUUCAUCUUGUCGACUUUGUUCUUUCCUUUGUUUUAUUAACAACAGAGGAUUGAGCAUCA
B22: chr6:83912004:83912005:+_ENSMUSG00000030016_ENSMUST00000032088|mus_mus|FALSE|FALSE (ssRNA)
RNA: GGGAGUUCUACAGUCCGACGAUCUAAGUUGUAAAUUUCUUCUGUAGAAUAUCCUUUGUUAGGCAAAUUAGAAAUAAAUACUACACUCAUUUCCUCCGAUUCCUUGUUCACUGGUUCCUUUUCUGUGGCCUCCAAAGUACCUGACAACAGAGGAUUGAGCAUCA

Biological target: T1, UNK ZnF1-3 (human, UniProt Q9C0B0 31-174)
T1 sequence: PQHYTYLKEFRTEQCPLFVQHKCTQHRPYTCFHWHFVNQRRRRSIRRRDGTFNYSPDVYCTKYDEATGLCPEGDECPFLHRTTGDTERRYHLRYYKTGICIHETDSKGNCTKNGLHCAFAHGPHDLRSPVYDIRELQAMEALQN
Experiment: nsRBNS (natural sequence RNA bind-n-seq); RBNS binding buffer (assumed for nsRBNS): 25 mM Tris pH 7.5, 150 mM KCl, 3 mM MgCl2, 0.01% Triton X-100, 500 ug/ml BSA, 20 U/ml SUPERase-In, 4 C; UNK is unkempt and MSI1 is Musashi-1; names of the RNAs are library labels; protein concentration not given here; high values mean tight binding

Q: With B1 as the binder, how does the binding signal read?
A: The binding signal was 0.852 enrichment R.

Q: For B2, which binding signal is on record?
A: Its binding signal is 1.49 enrichment R.

Q: Which binding signal does the source give for B3 here?
A: Its binding signal is 0.911 enrichment R.

Q: B4 was tested. Which binding signal did it give?
A: Its binding signal is 0.847 enrichment R.

Q: For B5, which binding signal is on record?
A: The binding signal was 2.72 enrichment R.

Q: For B6, which binding signal is on record?
A: Its binding signal is 0.922 enrichment R.

Q: B7 was tested. Which binding signal did it give?
A: The binding signal was 0.762 enrichment R.

Q: Which binding signal does the source give for B8 here?
A: The binding signal was 0.921 enrichment R.

Q: With B9 as the binder, how does the binding signal read?
A: The binding signal was 0.966 enrichment R.

Q: How did the binding signal turn out when B10 was run?
A: Its binding signal is 0.453 enrichment R.

Q: Which binding signal does the source give for B11 here?
A: The binding signal was 1.28 enrichment R.

Q: Which binding signal does the source give for B12 here?
A: The binding signal was 0.724 enrichment R.

Q: With B13 as the binder, how does the binding signal read?
A: The binding signal was 1.02 enrichment R.

Q: With B14 as the binder, how does the binding signal read?
A: The binding signal was 0.672 enrichment R.

Q: Which binding signal does the source give for B15 here?
A: Its binding signal is 2.05 enrichment R.

Q: With B16 as the binder, how does the binding signal read?
A: Its binding signal is 1.51 enrichment R.

Q: Which binding signal does the source give for B17 here?
A: Its binding signal is 0.563 enrichment R.

Q: Which binding signal does the source give for B18 here?
A: The binding signal was 1.62 enrichment R.

Q: Which binding signal does the source give for B19 here?
A: The binding signal was 1.1 enrichment R.

Q: For B20, which binding signal is on record?
A: Its binding signal is 0.983 enrichment R.

Q: With B21 as the binder, how does the binding signal read?
A: The binding signal was 0.216 enrichment R.

Q: Which binding signal does the source give for B22 here?
A: Its binding signal is 0.783 enrichment R.
